# Data reported in PMC9911399, “Two distinct binding modes provide the RNA-binding protein RbFox with extraordinary sequence specificity”.
# Substitutions are numbered along the chain they refer to; changes in the protein carry UniProt numbers. The list shows a part of the results.
# T1: RBFOX1 RRM RbFoxmut (Fox-RRM*) (Homo sapiens, UniProt Q9NWB1 109-208, R118D;E147R;N151S;E152T)
# T1 sequence: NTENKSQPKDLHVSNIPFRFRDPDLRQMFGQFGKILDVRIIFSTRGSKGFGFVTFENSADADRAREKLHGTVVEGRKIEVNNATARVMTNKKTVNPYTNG
# B1: GGUUGGG (DNA:RNA)
# RNA: GGGAGACCGGAAUUCAGAUUGUCCGGUUGGGUUAAAUCCCGUCGUAGCCACCA
# DNA 1: CAATCTGAATTCCGGTCTCCC
# DNA 2: TGGTGGCTACGACGGGATT
# B2: UGCAGCC (DNA:RNA)
# RNA: B1 RNA with G25U, U27C, U28A, G30C, G31C
# DNA 1: CAATCTGAATTCCGGTCTCCC
# DNA 2: TGGTGGCTACGACGGGATT
# B3: UGGCCUA (DNA:RNA)
# RNA: B1 RNA with G25U, U27G, U28C, G29C, G30U, G31A
# DNA 1: CAATCTGAATTCCGGTCTCCC
# DNA 2: TGGTGGCTACGACGGGATT
# B4: GAGCCUU (DNA:RNA)
# RNA: B1 RNA with G26A, U27G, U28C, G29C, G30U, G31U
# DNA 1: CAATCTGAATTCCGGTCTCCC
# DNA 2: TGGTGGCTACGACGGGATT
# B5: UAACUUG (DNA:RNA)
# RNA: B1 RNA with G25U, G26A, U27A, U28C, G29U, G30U
# DNA 1: CAATCTGAATTCCGGTCTCCC
# DNA 2: TGGTGGCTACGACGGGATT
# B6: UAUGCUG (DNA:RNA)
# RNA: B1 RNA with G25U, G26A, U28G, G29C, G30U
# DNA 1: CAATCTGAATTCCGGTCTCCC
# DNA 2: TGGTGGCTACGACGGGATT
# B7: CCGCGGA (DNA:RNA)
# RNA: B1 RNA with G25C, G26C, U27G, U28C, G31A
# DNA 1: CAATCTGAATTCCGGTCTCCC
# DNA 2: TGGTGGCTACGACGGGATT
# B8: AACCACC (DNA:RNA)
# RNA: GGGAGACCGGAAUUCAGAUUGUCCAACCACCUUAAAUCCCGUCGUAGCCACCA
# DNA 1: CAATCTGAATTCCGGTCTCCC
# DNA 2: TGGTGGCTACGACGGGATT
# B9: CCUAUGC (DNA:RNA)
# RNA: B1 RNA with G25C, G26C, U28A, G29U, G31C
# DNA 1: CAATCTGAATTCCGGTCTCCC
# DNA 2: TGGTGGCTACGACGGGATT
# Target: T1, RBFOX1 RRM RbFoxmut (Fox-RRM*)
# Assay: EMSA; HiTS-Eq, 1 nM pool, 10 min; buffer printed only for the single-RNA assays: 10 mM Tris pH 7.5, 150 mM NaCl, 3.4 mM EDTA, 0.001% NP-40, 30 C
# Settings: tags: His6 N-terminal (pET28a); label: 5' 32P
# Summary of the method: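 Purified RbFox RRM (wild type or mutant) was equilibrated for 10 min in 50 µL with 1 nM of a 5′-radiolabelled pool of RNA with 7 randomized nucleotides, its flanks annealed to DNA oligonucleotides, across increasing protein concentrations. Free RNA was separated by 8% native PAGE, excised, reverse-transcribed, PCR-barcoded and sequenced on an Illumina HiSeq 2500. Relative association constants came from read-count changes of each variant against the control reaction, normalised to the cognate motif.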
row,Binder,binding signal
1,B1,0.0621 KA relative to UGCAUGU
2,B2,0.123 KA relative to UGCAUGU
3,B3,0.107 KA relative to UGCAUGU
4,B4,0.0628 KA relative to UGCAUGU
5,B5,0.0601 KA relative to UGCAUGU
6,B6,0.101 KA relative to UGCAUGU
7,B7,0.0985 KA relative to UGCAUGU
8,B8,0.0674 KA relative to UGCAUGU
9,B9,0.131 KA relative to UGCAUGU
